# In all, about 110,000 compounds were measured (“z-score”: median about -0.1, highest 2% from about 2 on). This is one part of the list. Residues, ends and D or L forms follow the SMILES beside them. *: point of attachment. Boc = CC(C)(C)OC(=O)*
# Target: Metabotropic glutamate receptor 8 (Rattus norvegicus) (UniProt P70579)
# Assay: rat mGluR8 modulators via GIRK flux, primary screen, cell-based, thallium flux, HTS (AID 488969)
# Conditions: HEK293 rat mGluR8, GIRK (G protein-gated inwardly rectifying potassium channel) thallium flux, FluoZin2; at 10 µM; stronger effect = higher value; submaximal glutamate (EC20) added with thallium
# Sequence of UniProt P70579 (P70579 whole entry, looked up): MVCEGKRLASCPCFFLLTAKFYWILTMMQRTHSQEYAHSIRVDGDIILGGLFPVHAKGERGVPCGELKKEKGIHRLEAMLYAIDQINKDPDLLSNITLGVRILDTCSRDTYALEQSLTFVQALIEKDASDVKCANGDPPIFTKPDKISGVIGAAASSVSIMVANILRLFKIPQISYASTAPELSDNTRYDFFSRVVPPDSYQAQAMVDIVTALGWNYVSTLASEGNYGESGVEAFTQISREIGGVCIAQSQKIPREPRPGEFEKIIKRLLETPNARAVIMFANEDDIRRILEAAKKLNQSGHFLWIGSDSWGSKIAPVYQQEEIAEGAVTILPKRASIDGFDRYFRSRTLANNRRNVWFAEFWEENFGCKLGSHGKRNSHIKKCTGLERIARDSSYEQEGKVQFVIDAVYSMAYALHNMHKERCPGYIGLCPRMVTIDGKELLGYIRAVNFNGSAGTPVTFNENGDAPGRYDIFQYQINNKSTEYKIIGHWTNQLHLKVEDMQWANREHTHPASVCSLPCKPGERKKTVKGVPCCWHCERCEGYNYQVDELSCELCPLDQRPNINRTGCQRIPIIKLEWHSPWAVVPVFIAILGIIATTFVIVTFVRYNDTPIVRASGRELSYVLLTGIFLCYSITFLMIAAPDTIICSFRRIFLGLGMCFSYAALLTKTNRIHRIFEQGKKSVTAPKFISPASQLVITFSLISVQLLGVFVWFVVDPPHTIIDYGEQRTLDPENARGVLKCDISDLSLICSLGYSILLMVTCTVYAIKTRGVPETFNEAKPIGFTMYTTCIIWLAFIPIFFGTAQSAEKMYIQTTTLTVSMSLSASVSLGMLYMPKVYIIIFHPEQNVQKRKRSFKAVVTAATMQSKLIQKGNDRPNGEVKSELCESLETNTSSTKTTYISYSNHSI
row,Structure (SMILES),z-score
1,CCCCC(=O)N(c1ccc(C)c(C)c1)C1C=CS(=O)(=O)C1 (centres undefined),0.0839
2,CC(=NC1CC1)C1=C(O)c2ccccc2C1=O,-0.0848
3,CCc1nc(SCC(=O)O)c(C#N)cc1C,-0.171
4,O=C(COc1ccc(Br)cc1)N/N=C1\SCC(=O)N1c1ccc(F)cc1,0.0551
5,Cc1nc(-c2ccc(S(=O)(=O)N3CCCCCC3)cc2)cs1,0.287
6,O=C(CCNS(=O)(=O)c1ccc(Br)s1)Nc1ccc(Cl)cc1,-0.0218
7,Cc1sc2ncnc(SCC(=O)N3CCC(c4noc5ccc(F)cc45)CC3)c2c1C,0.0389
8,CN(C)S(=O)(=O)c1ccc(NC(=O)N2CCN(c3ccccc3Cl)CC2)cc1,-0.0667
9,CS(=O)(=O)CCC(C(=O)OCC(=O)c1ccc(Cl)cc1)N1C(=O)c2ccccc2C1=O (centres undefined),-0.0679
10,CC(C)(C)c1ccc(C2(C)NC(=O)N(CC(=O)c3ccc[nH]3)C2=O)cc1 (centres undefined),-0.552
11,COc1cc(/C=C/C(=O)OCC(=O)c2c[nH]c3ccccc23)ccc1OC(F)F,-0.0741
12,CC(C)OC(=O)c1cccnc1N1CCN(c2ccc(F)cc2)CC1,-0.216
13,O=C(NCc1ccccc1)C1CCC1,-0.0348
14,CCc1nc2c(nnn2Cc2ccc(F)cc2)c(=O)[nH]1,0.331
15,CCOC(=O)Cc1csc(NC(=O)c2ccc(S(=O)(=O)N3CCCC3)cc2)n1,0.525
16,C=CCNc1cc(C)oc(=O)c1C(=O)CCC,-0.519
17,CCc1ccc(-c2nc(-c3ccncc3)no2)cc1,2.31
18,CCN1CCN(C2=C(Cl)C(=O)N(Cc3ccccc3)C2=O)CC1,-0.191
19,Cc1c(CNC(=O)c2cnn3c2NC(c2ccccc2)CC3C(F)(F)F)cnn1C (centres undefined),-0.867
20,COc1ccc(Cc2nc3ccccc3n2CC(=O)N/N=C/c2ccc(O)cc2)cc1OC,0.0209
21,CCCOc1nc2c(c(=O)n(C)c(=O)n2C)n1CC,0.0437
22,COc1cccc(-n2c(=O)[nH]cc(C(=O)Nc3ccc(NC(C)=O)cc3)c2=O)c1,-0.503
23,CC(C)CN(CC(C)C)c1nnc(NC(=O)Cn2c(=O)oc3ccccc32)s1,-0.241

row,Structure (SMILES),z-score
1,Cc1ccc(Oc2cc(C#N)c(C#N)cc2-n2nnc3ccccc32)cc1C,0.332
2,Cc1cc(C(=O)Nc2cccnc2Cl)on1,0.294
3,O=C(C1CCN(Cc2ccc(F)cc2)CC1)N(CCO)Cc1ccccc1,-0.0919
4,CCc1ccc(NC(=O)c2ccc(C3SCC(=O)N3CCc3ccccc3)cc2)cc1 (centres undefined),-0.617
5,O=C(c1ccco1)c1cn[nH]c1-c1ccc(Cl)cc1O,0.507
6,COc1ccccc1NC(=O)c1csc(-n2nc(C)cc2C(F)(F)F)n1,-0.44
7,COC(=O)c1ccc(NC(=O)NS(=O)(=O)c2ccc(C)cc2)cc1,0.167
8,CCOC(=O)N1CCN(C(=O)C2CCN(S(=O)(=O)c3cc(Cl)ccc3Cl)CC2)CC1,0.678
9,CC(CC(=O)O)CC(=O)Nc1ccccc1C(=O)O (centres undefined),-0.0813
10,COCC(C)n1c(C)cc(C(=O)CN2C(=O)NC3(CCCCC3C)C2=O)c1C (centres undefined),-0.246
11,Cc1ccccc1OCCN1C(=O)C(=O)c2cccc(C)c21,-0.142
12,COCCn1c(SCc2ccc(C(=O)OC)o2)nc2ccccc2c1=O,-0.0699
13,O=C(/C=C/c1ccc2c(c1)OCO2)NCCSCc1c(Cl)cccc1Cl,-0.204
14,CS(=O)(=O)N(CC(=O)NC1CC2CCC1C2)c1cccc(C(F)(F)F)c1 (centres undefined),-0.272
15,COc1cccc(CN(CC(=O)NC2CCCC2)C(=O)CCC(=O)Nc2cc(C)on2)c1,0.081
16,CCCOC(=O)CSC1=C(C#N)C(c2ccc3c(c2)OCO3)CC(=O)N1 (centres undefined),-0.1
17,Cc1c(C(=O)Nc2cccc(Cl)c2)c2ccccn2c1CCc1ccncc1,-0.336
18,COc1ccc(CNC(=O)c2ccc(-c3ccccc3)cc2)cc1,-0.113
19,O=C(COC(=O)c1cccc(S(=O)(=O)N2CCOCC2)c1)Nc1ccc2c(c1)OCO2,0.39
20,CN(Cc1cnn(C)c1)C(=O)C1CCCCC1C(=O)O (centres undefined),-0.131
21,Cc1cccc(-n2c(=O)[nH]c3c(C(N)=O)nc(CC(C)C)nc32)c1,-0.133
22,COc1ccccc1Cn1nnc2c(=O)[nH]c(C3CCN(C(=O)c4ccccc4Cl)CC3)nc21,-1.41
23,CCOC(=O)CSc1n[nH]c(NC(=O)c2cccc(C)c2)n1,2.67

row,Structure (SMILES),z-score
1,CCc1ccc(OCC(=O)N/N=C/c2cc([N+](=O)[O-])ccc2N2CCCCCC2)cc1,-0.107
2,CNC(=O)NC(=O)COC(=O)c1ccc(-n2c(C)ccc2C)cc1,-0.452
3,O=C(CNC(=O)c1ccncc1)N/N=C/c1cc(Br)ccc1O,-0.138
4,CN1CCN(CCC(=O)Nc2cccc(F)c2)CC1,1.24
5,Cc1cc(Cl)ccc1OC(C)C(=O)NCCc1ccc2c(c1)OCCO2 (centres undefined),-0.267
6,C[N+]1(CCCCCCC(=O)/C=N/O)CCCCCC1,-0.0109
7,COc1cc(CN2CCN(c3ccc(C)cc3)CC2)cc([N+](=O)[O-])c1O,-0.348
8,CCOC(=O)N1CCN(C(=O)c2oc(=O)c3ccccc3c2-c2ccc(C)cc2)CC1,-0.945
9,CCOc1ccc(-c2nnc(-c3ccccc3)o2)cc1,-0.195
10,O=C(Nc1cccc2ncccc12)c1cccnc1,0.116
11,Nc1nc(CN2CCCCCC2)nc(Nc2ccc(F)cc2)n1,-0.88
12,CCN(c1ccc(NC(=O)COC(=O)c2ccc(C)c(S(=O)(=O)N3CCOCC3)c2)cc1)C(C)C,-0.29
13,CC1(C)CC(=O)c2cc(C(=O)O)c(=O)n(-c3ccccc3)c2C1,0.711
14,CSCCC(NC(=O)OC(C)(C)C)C(=O)NC(C(=O)NC(CC(C)C)C(N)=O)C(C)C (stereo not drawn) (Boc-Met-Val-Leu-NH2; configuration not given here),-0.958
15,COc1ccc(CC(=O)Nc2ccc(S(=O)(=O)Nc3cc(C)on3)cc2)cc1,-0.00735
16,COc1cccc(/C=C2\C(=O)C(=O)c3ccccc32)c1,0.201
17,Cc1ccc2nc(NC(=O)C3CCCN(S(=O)(=O)c4cnc[nH]4)C3)sc2c1 (centres undefined),0.151
18,COC(=O)c1cc2c(ccn2-c2ccc(F)cc2)n1CC(C)C,0.033
19,C=CCn1c(=N)n(CC(O)c2ccco2)c2ccccc21 (centres undefined),-0.0946
20,O=C(O)c1ccc2cc[nH]c2c1,0.693
21,Cc1cc(NC(=O)Cn2nc(C(F)(F)F)c3c2CCC3)no1,-0.301
22,Cc1ccc(C)c(OCC(=O)Nc2nc3ccc([N+](=O)[O-])cc3s2)c1,0.0186
23,Cc1c(C(=O)NCC2CCCO2)sc2nc(-c3ccccc3)cn12 (centres undefined),-0.72
